Data on 3 molecules can be found in US20110269834A1 (priority 2008, published 2011).

By IC50 is commonly meant the concentration at which inhibition is half-maximal. Low readings indicate inhibition by little substance, high ones a need for much substance.

For this assay, the target named is NL63-CoV papain-like protease 2 (PLP2) (Human coronavirus NL63, UniProt P0C6X5). The assay can be described thus: biochemical.
With `Cc1ccc(N)cc1C(=O)N[C@H](C)c1cccc2ccccc12` [Compound 24, 5-Amino-2-methyl-N—[(R)-1-(1-naphthyl)ethyl]benzamide], the IC50 is more than 100 µM. Next, `CC(=O)Nc1ccc(C)c(C(=O)N[C@H](C)c2cccc3ccccc23)c1` [Compound 25, 5-N-Acetylamino-2-methyl-N—[(R)-1-(1-naphthyl)ethyl]benzamide]: more than 100 µM.

Take `Cc1ccccc1C(=O)N[C@H](C)c1cccc2ccccc12` [Compound 5h, 2-Methyl-N—[(R)-1-(1-naphthyl)ethyl]benzamide]: the IC50 is more than 100 µM.
